These results are taken from the antibiotic and cytotoxicity screens of Wong et al. (2023).

The subject of one assay is HSkMC. Kind of assay: cytotoxicity call (relative viability < 0.9). The settings on record: 10 µM.
For a further assay, the system named is HepG2. Kind of assay: cytotoxicity call (relative viability < 0.9). Conditions: 10 µM.
A further assay deals with S. aureus RN4220. Kind of assay: growth inhibition call (relative growth <= 0.2). Conditions: 50 µM.

The list shows a part of the results.

Turning to `CO[C@H]1CN(C)C(=O)c2ccc(NC(=O)Nc3ccccc3)cc2OC[C@H](C)N(C(=O)CN(C)C)C[C@@H]1C`, the cytotoxicity call in the assay with HSkMC and in the assay on HepG2 was “inactive” throughout. Also, the growth inhibition call with S. aureus RN4220 was “inactive”.

With `C[C@@H]1CN([C@@H](C)CO)C(=O)Cc2cc(NC(=O)Cn3cnnn3)ccc2O[C@@H]1CN(C)S(=O)(=O)c1ccc(Cl)cc1`, the cytotoxicity call with HSkMC and with HepG2 was “inactive” in each case. Besides, the growth inhibition call in the assay on S. aureus RN4220 was “inactive”.

Consider `CC(=O)NCCn1cccc1`, for which the cytotoxicity call with HSkMC and in the assay with HepG2 was “inactive” each time. Also, in the assay with S. aureus RN4220, the growth inhibition call is “inactive”.

Take `COc1ccc(-c2coc3cc(OC(C)=O)cc(OC(C)=O)c3c2=O)cc1`: the cytotoxicity call in the assay on HSkMC and in the assay on HepG2 was “inactive” each time. Further, in the assay on S. aureus RN4220, the growth inhibition call was “inactive”.

Take `C[C@@H]1CN([C@@H](C)CO)C(=O)c2cccc(NC(=O)c3ccc(-c4nccs4)cc3)c2O[C@@H]1CN(C)CC1CCCCC1`: the cytotoxicity call in the assay with HSkMC and in the assay with HepG2 was “inactive” each time. In the assay with S. aureus RN4220, the growth inhibition call was “inactive”.

`CO[C@@H]1CN(C)C(=O)c2cc(NS(C)(=O)=O)ccc2OC[C@H](C)N(C(=O)CN(C)C)C[C@@H]1C`: the cytotoxicity call in the assay with HSkMC and in the assay on HepG2 was “inactive” throughout. Also, the growth inhibition call with S. aureus RN4220 was “inactive”.

Consider `COCC#Cc1cnc2c(c1)C(=O)N([C@H](C)CO)C[C@H](C)[C@H](CN(C)S(=O)(=O)c1cccc(OC)c1)O2`, for which the cytotoxicity call with HSkMC and in the assay with HepG2 was “inactive” in each case. For the same molecule, the growth inhibition call in the assay on S. aureus RN4220 was “inactive”.

Consider `C[C@@H]1CN([C@@H](C)CO)C(=O)c2cccc(NC(=O)c3ccc(-c4nccs4)cc3)c2O[C@H]1CN(C)Cc1ccccc1`, for which the cytotoxicity call with HSkMC and in the assay on HepG2 was “inactive” throughout. In addition, the growth inhibition call in the assay on S. aureus RN4220 is “inactive”.

Turning to `C[C@@H]1CCCCO[C@@H](CN(C)S(C)(=O)=O)[C@@H](C)CN([C@@H](C)CO)C(=O)c2cc(NS(=O)(=O)c3ccccc3)ccc2O1`, the cytotoxicity call in the assay with HSkMC and in the assay on HepG2 was “inactive” each time. Further, the growth inhibition call with S. aureus RN4220 was “inactive”.

For the molecule `NC(=S)c1cnccn1`, the cytotoxicity call with HSkMC and in the assay on HepG2 was “inactive” in each case. The growth inhibition call in the assay with S. aureus RN4220 was “inactive”.

As for `COc1ccc(S(=O)(=O)Nc2ccc3c(c2)C(=O)N([C@H](C)CO)C[C@@H](C)[C@H](CN(C)Cc2ccc(Oc4ccccc4)cc2)O3)cc1`, in the assay with HSkMC, the cytotoxicity call was “inactive”. Moreover, the cytotoxicity call in the assay on HepG2 is “active”. For the same molecule, the growth inhibition call in the assay with S. aureus RN4220 is “inactive”.

Regarding `C[C@H](CO)N1C[C@H](C)[C@H](CN(C)C(=O)Cc2ccccn2)Oc2cc(-c3cccc(C(=O)N(C)C)c3)ccc2S1(=O)=O`, the cytotoxicity call in the assay on HSkMC and in the assay on HepG2 was “inactive” in each case. The growth inhibition call in the assay on S. aureus RN4220 was “inactive”.

Take `COc1cccc(S(=O)(=O)Nc2ccc3c(c2)[C@@H]2C[C@H](CC(=O)N4CCCCC4)O[C@H](CO)[C@@H]2O3)c1`: the cytotoxicity call in the assay with HSkMC and with HepG2 was “inactive” throughout. Also, the growth inhibition call in the assay on S. aureus RN4220 is “inactive”.

Turning to `COc1ccc(OC)c(C(O)CNC(=O)CN)c1.Cl` (stereo not drawn), the cytotoxicity call in the assay with HSkMC and in the assay with HepG2 was “inactive” throughout. Besides, in the assay on S. aureus RN4220, the growth inhibition call was “inactive”.

Consider `Cc1noc(C)c1NC(=O)N(C)C[C@H]1OCCCC[C@@H](C)Oc2ccc(NC(=O)C3CCCCC3)cc2C(=O)N([C@H](C)CO)C[C@H]1C`, for which the cytotoxicity call in the assay on HSkMC and in the assay with HepG2 was “inactive” in each case. In addition, the growth inhibition call with S. aureus RN4220 was “inactive”.

In the case of `C[C@H](CO)N1C[C@H](C)[C@H](CN(C)S(C)(=O)=O)Oc2c(NC(=O)c3nc4ccccc4s3)cccc2C1=O`, the cytotoxicity call with HSkMC and in the assay with HepG2 was “inactive” throughout. Besides, in the assay with S. aureus RN4220, the growth inhibition call was “inactive”.

Consider `C[C@@H]1CN([C@@H](C)CO)C(=O)c2cccc(NC(=O)C3CCCCC3)c2O[C@@H]1CN(C)Cc1ccc(-c2ccccc2)cc1`, for which the cytotoxicity call in the assay on HSkMC and in the assay on HepG2 was “inactive” each time. Moreover, the growth inhibition call in the assay on S. aureus RN4220 was “inactive”.

Regarding `O=C(C[C@@H]1C[C@H]2c3cc(NC(=O)c4ccc5c(c4)OCO5)ccc3O[C@H]2[C@H](CO)O1)NCCc1ccccc1`, the cytotoxicity call with HSkMC and with HepG2 was “inactive” each time. Besides, in the assay with S. aureus RN4220, the growth inhibition call is “inactive”.

Turning to `COc1cccc(S(=O)(=O)N(C)C[C@@H]2OCc3cn(nn3)CCCC(=O)N([C@@H](C)CO)C[C@@H]2C)c1`, the cytotoxicity call in the assay on HSkMC (human skeletal muscle cells) and in the assay on HepG2 was “inactive” each time. In the assay on S. aureus RN4220, the growth inhibition call was “inactive”.

As for `C[C@H](CO)N1C[C@H](C)[C@@H](CN(C)Cc2ccc3c(c2)OCO3)Oc2c(NC(=O)c3cnccn3)cccc2C1=O`, the cytotoxicity call in the assay with HSkMC and in the assay with HepG2 was “inactive” in each case. Further, the growth inhibition call in the assay on S. aureus RN4220 was “inactive”.

On to `C[C@@H]1CN([C@H](C)CO)C(=O)c2cc(/C=C/c3ccccc3)cnc2O[C@H]1CN(C)C(=O)CN1CCOCC1`, for which the cytotoxicity call with HSkMC and in the assay on HepG2 was “inactive” throughout. Moreover, in the assay with S. aureus RN4220, the growth inhibition call was “inactive”.

Regarding `C[C@H]1CN([C@@H](C)CO)C(=O)c2cccc(NC(=O)C3CCOCC3)c2O[C@@H]1CN(C)S(=O)(=O)c1cccs1`, the cytotoxicity call in the assay with HSkMC and in the assay with HepG2 was “inactive” throughout. Further, in the assay with S. aureus RN4220, the growth inhibition call is “inactive”.

With `COc1cccc(S(=O)(=O)N(C)C[C@@H]2Oc3ncc(C#CCN(C)C)cc3C(=O)N([C@@H](C)CO)C[C@@H]2C)c1`, the cytotoxicity call in the assay with HSkMC and with HepG2 was “inactive” each time. In the assay on S. aureus RN4220, the growth inhibition call is “inactive”.

With `Cc1noc(C)c1S(=O)(=O)N(C)C[C@H]1OCCCC[C@@H](C)Oc2ccc(NC(=O)Nc3ccc(C(F)(F)F)cc3)cc2C(=O)N([C@H](C)CO)C[C@@H]1C`, the cytotoxicity call in the assay with HSkMC was “inactive”. In the assay on HepG2, the cytotoxicity call was “active”. For the same molecule, the growth inhibition call with S. aureus RN4220 was “inactive”.

As to `O=c1c(O)cc([C@H]2Oc3cc(O)cc(O)c3C[C@H]2O)c2cc([C@H]3Oc4cc(O)cc(O)c4C[C@H]3O)cc(O)c(O)c1-2`, the cytotoxicity call with HSkMC and in the assay on HepG2 was “inactive” throughout. For the same molecule, the growth inhibition call in the assay on S. aureus RN4220 was “inactive”.

Take `Cc1cccc(S(=O)(=O)N2C[C@@H](O)COC[C@H]3O[C@H](CC(=O)N4CCN(C)CC4)CC[C@@H]32)c1`: the cytotoxicity call in the assay with HSkMC and with HepG2 was “inactive” in each case. In addition, the growth inhibition call in the assay on S. aureus RN4220 was “inactive”.
